Measured values reported in PubChem BioAssay (NCATS).
Values joined by “and” are separate entries in the source; they are usually repeats but may differ in a detail not shown here. Equal entries are not always repeated. The list shows a part of the results. These are further read-outs of the screen, such as a control signal, another cell line or another target. No call is given for them. The list favours compounds with an active or inconclusive main result. Words in brackets tell the shape of the fitted curve; partial curves, single points and poor fits give uncertain potencies.

Assay: qHTS Assay for Lipid Storage Modulators (AID 1519)
Details: Drosophila S3 cells, BODIPY lipid droplet/cell ratio, laser cytometry; measured here: lipid (BODIPY) channel AC50; cells loaded with oleic acid
Summary of the method: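 Cells seeded at 5,000 per well were treated with compounds over a concentration series and loaded with oleic acid (400 uM, as added). Lipid droplet fluorescence (488 nm excitation, 500-530 nm channel) was read by laser-scanning cytometry and normalized to 20 uM Triacsin C.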
Tags tell the direction and shape of the fitted curve.

Row | Compound | AC50
1 | Cc1cnc(CNc2cc(-c3cccnc3)ncn2)cn1 | 3.16 µM [rising, partial curve, poor fit]
2 | CS(=O)(=O)N1CCC2(CC1)CN(c1ncccn1)C2 | 0.708 µM [rising, full curve]
3 | Cc1noc(C)c1-c1ccc2ncnc(Nc3ccccc3)c2c1 | 6.31 µM [rising, partial curve, poor fit]
4 | O=c1c(-c2cccc(Cl)c2)nc2cncnc2n1Cc1ccc(F)cc1 | 1.78 µM [rising, partial curve]
5 | COc1ccc(CNc2ncncc2-c2cccc(C#N)c2)c(OC)c1 | 0.891 µM [rising, full curve]
6 | O=S(=O)(c1ccccc1)N1CCC2(CCN(c3ncccn3)CC2)CC1 | 0.00794 µM [rising, full curve, poor fit]
7 | CCN(Cc1ccncc1)C(=O)[C@@H](CO)c1ccccc1 | 35.5 µM [rising, single point]
8 | COc1c2ccoc2nc2c(OC)c(OCC(O)C(C)(C)O)ccc12 (stereo not given) | 2.24 µM [rising, full curve]
9 | N#CCCn1c(=O)c(CCc2ccccc2)nc2cnc(Oc3ccccc3)nc21 | 0.178 µM [rising, full curve, poor fit]
10 | COc1ccc(Cl)cc1N=Nc1ncc[nH]1 | 1.12 µM [rising, full curve]
11 | O=c1c(-c2cccc(Cl)c2)nc2cncnc2n1-c1ccccc1 | 1.12 µM [rising, full curve, poor fit]
12 | CO/N=C(/C(=O)NC1C(=O)N2C(C(=O)O)=C(COC(N)=O)CSC12)c1ccco1 (stereo not given) | 2.51 µM [rising, full curve]
13 | COc1ccc(Oc2ncc3nc(C)c(=O)n(Cc4cccs4)c3n2)cc1 | 0.891 µM [rising, partial curve]
14 | Cc1nc2cnc(N(C)C)nc2n(CCc2ccccc2)c1=O | 1.58 µM [rising, full curve, poor fit]
15 | COc1ccc2[nH]cc(CCNc3ncncc3-c3ccccc3C(F)(F)F)c2c1 | 2.82 µM [rising, partial curve]
16 | COc1ccccc1CCn1c(=O)c(C)nc2cncnc21 | 0.0398 µM [rising, full curve]
17 | COc1ccc(CNc2nc(-c3c(C)noc3C)nc3ccccc23)c(OC)c1 | 2.82 µM [rising, partial curve, poor fit]
18 | COc1ccc2[nH]cc(CCNc3nc(-c4cccc(C#N)c4)nc4ccccc34)c2c1 | 0.0631 µM [rising, full curve]
19 | Cc1ccccc1-c1cc(N(C)Cc2ccco2)ncn1 | 14.1 µM [rising, partial curve, poor fit]
20 | CCCCN1CCC[C@@H]1CNC(=O)c1cc(C#N)c2ccccc2c1OC | 8.91 µM [rising, partial curve]

Row | Compound | AC50
21 | COC1(C2=NCCN2)COc2ccccc2O1 (stereo not given) | 2.82 µM [falling, partial curve, poor fit]
22 | CN(CC[C@@H](Oc1ccc(-c2ccccc2)cc1)c1ccc(F)cc1)CC(=O)O | 35.5 µM [rising, partial curve, poor fit]
23 | Cc1noc(C)c1-c1nc(NCCN2CCOCC2)c2ccccc2n1 | 1 µM [rising, full curve]
24 | Cc1cnc(CNc2ncnc3ccc(-c4ccc(C(=O)N(C)C)cc4)cc23)cn1 | 3.16 µM [rising, full curve]
25 | Cc1cnc(CNc2ncncc2-c2ccc3c(c2)OCO3)cn1 | 0.178 µM [rising, full curve, poor fit]
26 | COc1cc(/C=C/C(=O)N2CCC=CC2=O)cc(OC)c1OC | 17.8 µM [falling, partial curve]
27 | CC1(C)CC(=O)C([C@H]2C3=C(CC(C)(C)CC3=O)Oc3ccccc32)C(=O)C1 | 17.8 µM [rising, partial curve, poor fit]
28 | CCCCCCc1c(C[C@H](N)C(=O)O)o[nH]c1=O | 35.5 µM [rising, single point] and 14.1 µM [rising, single point]
29 | COC(=O)[C@H]1[C@H]2CC3c4[nH]c5ccccc5c4CCN3C[C@@H]2CC[C@@H]1O (stereo not given in full) | 35.5 µM [rising, single point]
30 | CN(C)c1ccc(-c2nc(NCCc3cnc[nH]3)c3ccccc3n2)cc1 | 1.78 µM [rising, full curve, poor fit]
31 | CN(C)c1ncc2nc(-c3cccs3)c(=O)n(CCc3ccccc3)c2n1 | 0.562 µM [rising, full curve]
32 | CN(C)c1ncc2nc(-c3cccs3)c(=O)n(-c3ccccc3)c2n1 | 39.8 µM [falling, single point]
33 | C[C@H]1C=C2C=C[C@H](C)[C@H](CC[C@@H]3C[C@@H](O)CC(=O)O3)[C@H]2[C@@H](OC(=O)[C@@H](C)CCO)C1 | 39.8 µM [rising, single point]
34 | CCCN(CCC)C(=O)C(CCC(=O)O)NC(=O)c1ccccc1 (stereo not given) | 6.31 µM [falling, full curve, poor fit]
35 | O=c1c(CCc2ccccc2)nc2cnc(N3CCOCC3)nc2n1Cc1ccc(F)cc1 | 0.0631 µM [rising, full curve, poor fit]
36 | COc1cccc(-c2nccc(NCc3cnc(C)cn3)n2)c1 | 1 µM [rising, full curve]
37 | COCCn1c(=O)c(CCc2ccccc2)nc2cnc(N3CCOCC3)nc21 | 3.16 µM [rising, full curve]
38 | c1ccc(CNc2ncnc3ccc(-c4ccoc4)cc23)cc1 | 7.94 µM [rising, full curve]
39 | CC#CCOC(=O)c1c(C)nc2sc3c(c2c1N)CC[C@@H](O)C3 | 0.891 µM [rising, full curve]
40 | CC(N)(C(=O)O)c1ccc(C(=O)O)cc1 (stereo not given) | 0.112 µM [falling, full curve, poor fit]
